Source: publication PMC4336329 (PLoS ONE, 2015)
In all, about 310,000 compounds went through this assay and about 14,000 (4.5%) showed an effect of 50% or more. Effects have a minus sign here. The list shows a part of the results.

biological target: human ether-à-go-go-related gene (hERG) potassium channel (human, UniProt Q12809); test: primary screen, population patch clamp on CHO cells stably expressing hERG
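Also: peak tail current of the secondary pulse compared with the same well before compound.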

human ether-à-go-go-related gene (hERG) potassium channel, sequence (Q12809 whole entry, looked up): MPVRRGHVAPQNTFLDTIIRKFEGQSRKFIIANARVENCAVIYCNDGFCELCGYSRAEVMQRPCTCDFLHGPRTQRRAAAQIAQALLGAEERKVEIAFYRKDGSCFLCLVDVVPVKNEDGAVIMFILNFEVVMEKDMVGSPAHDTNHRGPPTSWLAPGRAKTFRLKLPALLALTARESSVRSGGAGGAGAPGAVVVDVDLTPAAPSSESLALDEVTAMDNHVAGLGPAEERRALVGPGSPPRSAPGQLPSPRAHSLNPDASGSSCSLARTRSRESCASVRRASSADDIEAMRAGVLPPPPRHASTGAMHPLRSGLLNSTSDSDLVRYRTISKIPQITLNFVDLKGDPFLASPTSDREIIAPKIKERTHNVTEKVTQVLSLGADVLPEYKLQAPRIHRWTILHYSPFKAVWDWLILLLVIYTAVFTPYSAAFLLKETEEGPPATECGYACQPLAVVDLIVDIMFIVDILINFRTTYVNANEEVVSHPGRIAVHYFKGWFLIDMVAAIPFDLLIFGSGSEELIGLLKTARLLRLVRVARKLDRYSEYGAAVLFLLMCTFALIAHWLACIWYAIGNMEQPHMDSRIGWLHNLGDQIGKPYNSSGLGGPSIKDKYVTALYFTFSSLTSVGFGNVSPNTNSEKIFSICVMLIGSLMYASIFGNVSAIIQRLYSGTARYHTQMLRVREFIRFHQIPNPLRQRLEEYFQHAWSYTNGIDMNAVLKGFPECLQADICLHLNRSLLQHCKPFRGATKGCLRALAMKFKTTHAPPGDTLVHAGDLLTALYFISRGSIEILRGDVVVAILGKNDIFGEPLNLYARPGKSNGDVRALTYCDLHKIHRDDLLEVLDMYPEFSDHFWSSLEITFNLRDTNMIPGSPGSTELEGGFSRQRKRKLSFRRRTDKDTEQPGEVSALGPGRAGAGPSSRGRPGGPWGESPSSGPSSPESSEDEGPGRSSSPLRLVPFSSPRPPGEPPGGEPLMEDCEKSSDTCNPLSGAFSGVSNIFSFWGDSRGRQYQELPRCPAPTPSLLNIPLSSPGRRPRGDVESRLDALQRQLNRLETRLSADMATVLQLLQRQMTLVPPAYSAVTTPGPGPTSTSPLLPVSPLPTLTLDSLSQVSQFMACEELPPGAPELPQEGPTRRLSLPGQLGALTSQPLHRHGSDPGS

Compound	hERG current change (%, negative = inhibition) at 10uM
O=C1C(=C(c2ccccc2)c2ccccc2)Nc2ccccc21	5.34%
N#Cc1c(N2CCCC2)nsc1-c1ccccc1	14.5%
CCCc1cc(C(=O)NNC(=S)NCC2CCCO2)cs1 (centres unmarked)	-1.58%
O=C1CC(=O)Nc2cc(S(=O)(=O)Nc3ccc(F)cc3Cl)ccc2N1	-2.84%
Cc1cc(C)n(C(=O)Cn2nc(C(F)F)cc2C)n1	22.1%
c1ccc(-c2noc(CC3CCCCC3)n2)nc1	6.32%
CC1Cc2ccccc2N1CC(=O)Nc1ccc(S(N)(=O)=O)cc1 (centres unmarked)	-6.21%
CC(NC(=O)c1ccccc1SCC(=O)N1CCCC1)c1ccc(F)cc1 (centres unmarked)	2.6%
Clc1ccccc1COc1ccccc1-c1nnco1	1.3%
Cc1cccc(CSCc2ccc(C(=O)NCC3CCCO3)o2)c1 (centres unmarked)	-21.3%
O=C(O)c1cnn(-c2nc(-c3ccc(F)cc3)cs2)c1C(F)(F)F	1.22%
Cc1ccc(C(=O)Nc2ccccc2C(=O)NC(C(=O)O)C(C)C)cc1 (centres unmarked)	0.929%
C=CCn1c(SCC(=O)NC2CCCC2)nnc1-c1ccccn1	12.3%
O=C1CN2CCC1C/C2=C\c1ccnc2c(Cl)cccc12 (centres unmarked)	-0.086%
Nc1cc(=O)[nH]c(SCC(=O)Nc2cc(S(=O)(=O)N3CCCCC3)ccc2Cl)n1	19.6%
Cc1ccc(OCC(=O)Nc2c[nH]c(=O)[nH]c2=O)cc1C	18.9%
Cc1cccc2c3c([nH]c12)CCNC3.Cl	8.46%
COc1ccccc1-n1cnnc1SCC(=O)N1CCOCC1	4.58%
Cn1cccc1/C=N/NC(=O)CSc1nc2ccccc2[nH]1	-8.65%
CCOc1ccccc1NC(=S)N1CCCCCC1	14.2%
COc1ccc(CC(=O)N/N=C(\C)CC(=O)Nc2ccc3c(c2)OCCO3)cc1OC	-10.1%
Cc1ccccc1-c1nc2cc(Cl)ccc2c(=O)o1	13.3%
CC(C(=O)NC1CCCCC1)N(Cc1ccc(F)cc1)C(=O)c1snc(C(N)=O)c1N (centres unmarked)	-28.8%

Compound	hERG current change (%, negative = inhibition) at 10uM
COc1ccc(NC(=S)Nc2ccc(S(N)(=O)=O)cc2)c(OC)c1	3.01%
O=C(/C=C/c1ccc(S(=O)(=O)NCc2ccco2)cc1)NCc1cccc(Cl)c1	-13.6%
CN(C)c1nc(OCCOC(=O)Nc2ccc(Cl)cc2Cl)nc(N(C)C)n1	-5.59%
Cc1nn(-c2ccccc2)c(NC(=O)C(C)C)c(-c2ccccc2)c1=O	14.2%
CC1(C)Cc2nc3sc(C(=O)NCCCO)c(N)c3cc2CO1	12.1%
COc1ccc(CCn2c(N)c(C(=O)NCc3ccco3)c3nc4ccccc4nc32)cc1OC	14.8%
Cc1cc(C)nc(NC(=O)c2cc(-c3ccc4c(c3)OCO4)nc3ccccc23)c1	12.6%
N/N=C1\CCCc2nonc21	37%
CC(C)C(NC(=O)c1ccccc1F)C(=O)NCc1ccccc1 (centres unmarked)	6.97%
O=C(Nc1ccc(Cl)cc1)C1=Cc2ccccc2OC1	-9.34%
CN(C)CCC(c1ccccc1)c1ccccn1.O=C(O)/C=C/C(=O)O (centres unmarked)	10.5%
Clc1cccc(CN2CCN(Cc3nc(CCc4ccccc4)no3)CC2)c1	-31.4%
Cc1ccc(OCC(=O)Nc2sc3c(c2C#N)CC(C)(C)NC3(C)C)cc1	1.97%
Cc1cnc(=O)[nH]c1SCc1cccc(C(F)(F)F)c1	2.37%
Cc1ccn2c(CNCCCn3cccn3)c(C(=O)N3CCCCCC3)nc2c1	-23.4%
CCOc1ccc(S(=O)(=O)N2CCN(c3ccccc3F)CC2)c2cccnc12	-11.2%
O=C1C(NS(=O)(=O)c2ccccc2)=C(N2CCN(c3ccc(F)cc3)CC2)C(=O)c2ccccc21	13.1%
Cc1nc(N)sc1-c1csc(Nc2ccc(S(N)(=O)=O)cc2)n1	15%
CCOc1ccc(S(=O)(=O)NCc2cccs2)cc1	-20.2%
Cn1c(=O)c2c(nc(SCC(=O)N3CCOCC3)n2C)n(C)c1=O	17.8%
CC(C)(C)C1CCC(C(=O)OCC(=O)c2ccc[nH]2)CC1 (centres unmarked)	-2.48%
CC(C)C1Oc2ccccc2N(CC(=O)NCCCN2C(C)CCCC2C)C1=O (centres unmarked)	-9.7%
CCOC(=O)C1C(=O)NC(SCC(=O)Nc2nccs2)=C(C#N)C1c1ccccc1OCC (centres unmarked)	13.7%

Compound	hERG current change (%, negative = inhibition) at 10uM
CN(C)C=O.Cn1nnnc1SCC(=O)NNC(=O)c1ccc(F)cc1	-9.81%
CC(NC(=O)NC1CCCCC1)C(c1cccs1)N1CCN(C)CC1 (centres unmarked)	-8.03%
Cc1[nH]n(-c2ccc(Cl)cc2)c(=O)c1C=NC12CN3CN(CN(C3)C1)C2	-26.5%
Cc1c(-c2ccccc2)n[nH]c1C(=O)N=Nc1c(O)[nH]c2ccccc12	1.39%
CC(=O)c1ccc(S(=O)(=O)N2CCN(C(=O)c3ccc(N)c([N+](=O)[O-])c3)CC2)cc1	-25.1%
CCN(CC)S(=O)(=O)c1ccc(N2CCN(C)CC2)c(NC(=O)COc2ccc(F)cc2Cl)c1	-59%
CCN(CC)CCC/C(=N\O)C(O)(c1ccccc1)c1ccccc1	7.28%
O=C(CSc1ccc(Cl)cc1)Nc1nnc(-c2cccc([N+](=O)[O-])c2)s1	12.3%
CC(C)c1ccc2c(c1)C(c1cccs1)=NNC(c1ccncc1)=N2	12.7%
COc1ccc(N2CCN(C(=O)COc3ccc4c(C)cc(=O)oc4c3)CC2)cc1	-16.5%
CCOC(=O)c1c(NC2OC(=O)c3c2ccc(OC)c3OC)sc(C(=O)OC(C)(C)C)c1C (centres unmarked)	-0.684%
N#Cc1ccccc1OCCCN1CCC(Cc2ccccc2)CC1.O=C(O)C(=O)O	-80%
CCOC(Cn1ccc(=O)[nH]c1=O)OCC	9.96%
CCN(C(=O)c1ccnn1C)c1ccccc1	4.75%
CCn1c(SCc2nc3ccccc3[nH]2)nnc1-c1ccccc1OC	-10.3%
COc1cc2[nH]c3c(OC)ncnc3c2cc1OC	3.73%
Cc1cccc(C)c1C(=NCCCN(C)C)c1ccccc1.Cl	-22.4%
O=C(Cn1ncc2c3ccccc3n(Cc3ccccc3)c2c1=O)NCCCN1CCCC1	-72.5%
CCS(=O)(=O)Nc1cc(C(=O)OC)ccc1C(=O)OC	7.39%
CCOC(=O)c1ccccc1NC(=O)CSc1ncc(C(=O)OCC)c(N)n1	6.8%
CC(=O)c1ccc(S(=O)(=O)N2CCC3(CC2)OCCO3)cc1	4.55%
Cc1ccc(OCC(=O)NCCN2CCOCC2)cc1C	7.92%
COc1ccc(OCC(=O)OCC(=O)Nc2ccc3[nH]c(=O)[nH]c3c2)cc1	3.56%

Compound	hERG current change (%, negative = inhibition) at 10uM
CCCCC(=O)NC1=C(C(=O)OC)SCC1	21.2%
NS(=O)(=O)c1cc(C(=O)NCCc2ccccn2)ccc1Cl	-39.5%
CC(C)N(C(=O)CSc1nnc(-c2cc3ccccc3cc2O)n1Cc1ccco1)C(C)C	-24.1%
O=C(NCc1ccccn1)c1cccc(S(=O)(=O)NCc2ccccc2)c1	-3.88%
COc1cccc(SCc2noc(C(=O)NCCCN3CCOCC3)c2C(=O)NCCCN2CCOCC2)c1	-4.2%
Cc1ccc(C(=O)NNC(=S)NC(=O)c2ccc(Cl)cc2Cl)cc1	-4.97%
COc1ccc(C(=O)NCc2nnc(SCC(=O)Nc3cc(OC)ccc3OC)o2)cc1	-27%
O=C(NC1CCCCC1)C1CCN(C(=O)NCc2ccccc2)CC1	-2.05%
Cc1cccc(N2CCN(C(=O)CCS(=O)(=O)c3ccc4c(c3)NC(=O)CO4)CC2)c1C	6.12%
N#C/C(=C/c1ccc(OCc2ccc(C(=O)O)cc2)cc1)C(=O)Nc1ccccc1	16.2%
O=C(COC(=O)c1n[nH]c2ccccc12)Nc1ccc(Cl)cc1[N+](=O)[O-]	22.7%
CC(C)(C)C(=O)Nc1nc2cc3c(cc2s1)OCO3	20.1%
CCN(CC)CC.COc1ccccc1-n1c(=S)[nH]c2c(sc(=S)n2-c2ccccc2)c1=O	16.9%
COc1ccc(C(=O)N(CCCO)C(C)C(=O)NC2CCCCC2)cc1OC (centres unmarked)	-2.63%
Cc1ccc2c(c1)C(=O)CCCCC(=O)N2	8.33%
Cc1nc(N2CCN(c3ccccc3)CC2)[nH]c(=O)c1Cc1cccc2ccccc12	9.76%
O=C(NCc1ccc(F)cc1)c1ccc2c(=O)n3c(nc2c1)CCCCC3	-36.7%
Br.N=c1n(CC(=O)c2cccs2)c2ccccc2n1Cc1ccccc1	-48%
O=C(C1CCN(S(=O)(=O)c2cccc3cccnc23)CC1)N1CCN(c2ccccc2)CC1	-16%
O=[N+]([O-])c1ccccc1/C=C/CN1CCCC(CO)C1 (centres unmarked)	1.93%
